Assay results from publication PMC4336329 (PLoS ONE, 2015).
The whole screen tested about 310,000 compounds, of which about 2,200 (0.71%) showed an effect of 50% or more. Effects have a minus sign here. The list shows a part of the results.

target: human ether-à-go-go-related gene (hERG) potassium channel (human, UniProt Q12809); test: primary screen, population patch clamp on CHO cells stably expressing hERG
Sequence (Q12809 whole entry, looked up): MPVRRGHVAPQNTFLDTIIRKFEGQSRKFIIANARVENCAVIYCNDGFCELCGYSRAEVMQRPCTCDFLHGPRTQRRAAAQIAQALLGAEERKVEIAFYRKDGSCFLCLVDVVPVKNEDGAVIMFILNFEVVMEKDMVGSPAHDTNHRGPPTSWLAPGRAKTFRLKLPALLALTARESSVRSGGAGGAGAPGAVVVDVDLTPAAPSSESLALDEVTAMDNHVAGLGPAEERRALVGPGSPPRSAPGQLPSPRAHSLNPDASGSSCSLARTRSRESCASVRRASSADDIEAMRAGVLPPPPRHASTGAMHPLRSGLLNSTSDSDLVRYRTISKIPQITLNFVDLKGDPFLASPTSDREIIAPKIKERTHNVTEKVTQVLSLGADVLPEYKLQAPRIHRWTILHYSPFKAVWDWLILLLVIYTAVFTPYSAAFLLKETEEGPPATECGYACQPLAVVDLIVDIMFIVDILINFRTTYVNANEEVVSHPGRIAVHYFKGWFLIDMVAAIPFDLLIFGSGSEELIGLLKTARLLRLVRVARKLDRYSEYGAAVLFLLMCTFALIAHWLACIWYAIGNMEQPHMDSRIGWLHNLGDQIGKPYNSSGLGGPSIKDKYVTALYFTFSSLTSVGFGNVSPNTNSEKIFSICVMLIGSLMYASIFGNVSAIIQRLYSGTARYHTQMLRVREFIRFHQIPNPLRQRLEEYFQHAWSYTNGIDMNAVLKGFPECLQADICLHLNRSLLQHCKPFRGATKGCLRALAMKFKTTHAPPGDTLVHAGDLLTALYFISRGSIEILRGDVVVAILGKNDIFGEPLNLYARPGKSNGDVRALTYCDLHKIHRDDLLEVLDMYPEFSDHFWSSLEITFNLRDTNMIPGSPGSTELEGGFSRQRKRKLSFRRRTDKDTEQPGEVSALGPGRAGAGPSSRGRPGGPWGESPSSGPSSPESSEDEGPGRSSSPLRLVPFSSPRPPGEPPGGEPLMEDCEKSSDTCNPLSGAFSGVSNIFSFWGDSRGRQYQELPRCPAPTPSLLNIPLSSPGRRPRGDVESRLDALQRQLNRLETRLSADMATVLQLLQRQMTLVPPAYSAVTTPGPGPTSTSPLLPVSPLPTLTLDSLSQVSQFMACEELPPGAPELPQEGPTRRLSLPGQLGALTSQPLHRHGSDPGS

SMILES | hERG current change (%, negative = inhibition) at 1uM [%]
Cc1cccc(NC(=S)N(C)Cc2cn(C)c3ccccc23)c1 | 6.6
O=C(O/N=C1\CCCc2ccccc21)c1ccc(F)cc1 | 1.44
Cc1cc(C(=O)CCl)c(C)n1-c1cccc([N+](=O)[O-])c1 | 11
O=C(NC(=S)Nc1ccc(S(=O)(=O)N2CCCCCC2)cc1)c1cccs1 | 0.562
CC1CCC(NC(=O)Cn2ncc3ccccc32)CC1 (stereo not shown) | 2.18
C=CCn1c(SCc2csc(C)n2)nc2sc3c(c2c1=O)CCCC3 | 10.2
CC(=O)c1ccc(N2CCN(C(=O)C(=O)c3c(C)[nH]c4ccccc34)CC2)cc1 | -2.31
COc1cccc(-c2nc3n(n2)C(c2ccc4c(c2)OCO4)C(C(N)=O)=C(C)N3)c1 (stereo not shown) | 6.43
COc1ccc(Cn2nnnc2C(c2cc3cccc(C)c3[nH]c2=O)N2CCOCC2)cc1 (stereo not shown) | -14.6
C=CCn1c(COc2cccc3cccnc23)nnc1SCC(=O)OC | 12.8
C[C@H](NC(=O)c1nc[nH]c1C(=O)OCc1ccccc1)c1ccccc1 | 6.37
CCN1CCN(C(c2ccc(F)cc2)c2nnnn2Cc2ccc3c(c2)OCO3)CC1.Cl (stereo not shown) | -19.6
O=C(CCS(=O)CCC(=O)NCc1ccccc1)NCc1ccccc1 | 17
COc1ccc(NC(=O)NC2(C(=O)N3CCCC(C)C3)CCCCC2)cc1 (stereo not shown) | 14.1
CC(=O)c1cccc(NC(=O)C(C)OC(=O)C2CCC2)c1 (stereo not shown) | 7.5
CC(=O)c1cccc(CN2CCC(C(=O)Nc3ccc(-c4cccc(C)c4)cc3)CC2)c1 | 6.83
CCCCn1c(N)c(N(CC(C)C)C(=O)C2CC(=O)N(CCc3ccccc3)C2)c(=O)[nH]c1=O (stereo not shown) | 9.06
COc1ccc(-c2cc(=O)oc3cc(OCC(=O)NCC(O)c4ccccc4)ccc23)cc1 (stereo not shown) | 11.1
CCC(=NCC1CCCO1)c1c(O)n(Cc2ccccc2)c(=O)[nH]c1=O (stereo not shown) | -17.2
O=C(NCc1cccnc1)c1ccc(COc2ccc(Cl)cc2)cc1 | -31.1
COC(=O)CN1C(=O)C(C)=C(c2ccc(C)cc2)S1(=O)=O | -4.88
CCOC(=O)c1[nH]c2ccc(F)cc2c1NC(=O)c1ccccc1C(=O)O | 15

SMILES | hERG current change (%, negative = inhibition) at 1uM [%]
COc1cccc(/C=C2/SC(=O)N(CC(=O)N3CCc4ccccc4C3)C2=O)c1OCC(=O)O | 9.5
N#Cc1c(N)nc2c(c1N)CC(=O)N2c1ccc(Cl)cc1 | 10.9
O=C(Cc1ccc(Cl)cc1)NNC(=O)c1cnccn1 | 14.3
COc1ccc(Br)cc1C(=O)Nc1ccc(C(=O)NCC(C)C)cc1 | 1.16
CCc1nnc(NC(=O)C2CCCN2S(=O)(=O)c2ccc(C)cc2)s1 (stereo not shown) | 11.8
c1ccc(-c2nn[nH]n2)cc1 | 9.31
CC1CN=C(N(C(=O)Nc2ccccc2)c2ccc(F)cc2)S1 (stereo not shown) | 0.926
COc1ccccc1N1CCN(S(=O)(=O)c2ccc3c(c2)n(C)c(=O)n3C)CC1 | -2.43
CCC(c1nnnn1Cc1ccco1)N(CCc1ccccc1)Cc1cc2cccc(C)c2[nH]c1=O (stereo not shown) | 11.4
COc1ccc(Nc2ncc(C(=O)N3CCC4(CC3)OCCO4)c3ccccc23)cc1 | 10.6
Cc1ccc(C(=O)COC(=O)C2CC(=O)N(c3nc(-c4ccccc4)cs3)C2)cc1 (stereo not shown) | 12.3
Cc1ccccc1CC1(CO)CCCN(C(=O)c2ccccc2N(C)C)C1 (stereo not shown) | 10.9
CCOc1ccc(Cc2nnc(SCC(=O)Nc3ccc(OC)cc3)n(N)c2=O)cc1 | 14.8
COc1ccc(OC)c(S(=O)(=O)N2CCN(C)CC2)c1 | -1.71
O=c1[nH]c(COc2ccc(Cl)cc2Br)nc2ccccc12 | 8.21
O=C(O)CN1C(=O)/C(=C/c2ccccc2Cl)Oc2ccccc21 | 14
CCOC(=O)c1cn2cccnc2n1 | 19.2
Cc1nc(CNC(=O)CC2C(=O)NCCN2Cc2ccc(F)cc2)cs1 (stereo not shown) | -0.332
O=C(CC1NC(=O)NC1=O)Nc1ccccc1 (stereo not shown) | 0.887
O=S(=O)(c1ccc2oc3ccc(S(=O)(=O)N4CCCCC4)cc3c2c1)N1CCCCC1 | 3.81
COc1ccc(-c2noc(CCC(=O)Nc3cccnc3)n2)cc1OC | 0.221
COc1ccc(NC(=O)c2cc(-c3ccccc3Cl)on2)cc1OC | 13.8

SMILES | hERG current change (%, negative = inhibition) at 1uM [%]
c1ccc2[nH]c(-c3cnco3)cc2c1 | 9.59
CCOC(=O)c1c(NC(=O)c2ccco2)sc(C(=O)N2CCCC2)c1C | 12.5
CC(C)CC(=O)NCCc1ccncc1 | 8.96
Cc1ccc(C2c3sc(=O)[nH]c3SC3C4CC(C5C(=O)N(C(C)C(=O)O)C(=O)C45)C23)cc1 (stereo not shown) | 14
CC(NC(=O)c1ccccc1NC(=O)c1ccco1)c1ccccc1 (stereo not shown) | 0.222
Cc1c(NC(=O)c2cccc(NC(=O)Cc3ccc(F)cc3)c2)c(=O)n(-c2ccccc2)n1C | 11
CN(C)C(CNC(=O)c1coc2ccccc2c1=O)c1ccccc1 (stereo not shown) | 16.1
Cc1cc(Cl)ccc1C1=CC(=O)C[C@H](c2ccc(F)cc2)C1 | 16.1
Cl.N=c1sccn1CC(=O)Nc1cc(Cl)ccc1Oc1ccccc1 | -44.9
CCOc1ncccc1C(=O)OCc1c(F)cccc1Cl | 12.8
Cc1onc(-c2ccccc2)c1C(=O)NCc1ccc(F)cc1 | 6.13
CCC(C(=O)NCc1ccc(C)o1)n1nc(C)c2c(C)n(-c3ccccc3)nc2c1=O (stereo not shown) | 13.9
Cc1cc(CN(C)C(=O)CCc2nnc(Cc3cccc(C(F)(F)F)c3)o2)on1 | 5.25
Cl.NCCc1ccc(S(=O)(=O)F)cc1 | 1.95
O=C(O)CCc1ccc(S(=O)(=O)Nc2ccccc2C(=O)NCCc2ccccc2)cc1 | 14.8
CN1CCN(c2nc(-c3ccccc3)nc(-c3ccccc3)c2C#N)CC1 | 13.9
O=C1Cc2cc(S(=O)(=O)Nc3ccccc3Cl)cc3c2N1CCC3 | 14.8
O=C(Nc1ccc(F)cc1F)N1CCN(c2ncccn2)CC1 | 1.83
Cc1cc(NC(=O)c2ccc3c(c2)C(=O)N(Cc2ccccc2)C3=O)no1 | 15.3
CN(C)c1ccc(C#Cc2ccc3cc(CCCO)oc(=O)c3c2)cc1 | 28.3
O=S(=O)(c1ccc(-c2ccno2)s1)N1CCCCC1 | 5.11
Cc1nnsc1SCC(=O)O | -3.05

SMILES | hERG current change (%, negative = inhibition) at 1uM [%]
COC(=O)c1cc(NC(=O)Nc2cc(OC)ccc2OC)cc(C(=O)OC)c1 | 0.0433
O=C(O)CCCCCN1C(=O)/C(=C\c2ccncc2)SC1=S | 10.3
O=C(O)C(F)(F)C(NCc1ccccc1)c1ccccc1 (stereo not shown) | 15.5
CCc1cccc(C)c1NC(=O)CC1Oc2ccc(C)cc2NC1=O (stereo not shown) | 11.9
COc1cccc(N2CC(C(=O)NC3CCCCC3)CC2=O)c1 (stereo not shown) | 3.45
CC(C)C1=C2CCCCC2NC(=O)N1 (stereo not shown) | 10.4
CCc1nnc(NC(=O)C2Cc3ccccc3CN2S(=O)(=O)c2c(C)c(C)cc(C)c2C)s1 (stereo not shown) | 6.37
CCCN(CC(=O)Nc1ccccc1C)C(=O)c1ccc(Cl)c(S(=O)(=O)N2CCCC2)c1 | 13.8
COc1ccc(C(O)(CCC(C)C)C(CN2CCOCC2)c2ccccc2)cc1.Cl (stereo not shown) | 13.2
CC1Oc2ccccc2N(CC(=O)N2CCc3ccccc32)C1=O (stereo not shown) | 0.878
Cn1c(=O)n(C)c2cc(C(=O)Nc3ccc(Br)cc3)ccc21 | 13.2
COc1ccc(C(=O)c2ccc(OC)cc2O)c(O)c1 | 12.4
O=C1c2cccc3c(N4CCOCC4)c([N+](=O)[O-])cc(c23)C(=O)N1c1cccc2ccccc12 | 12.7
Cc1ccc(SCC(=O)Nc2ccccc2C(=O)N2CCOCC2)cc1 | 2.01
CN1C(=O)[C@H]2[C@@H](c3ccc(F)cc3)N3C(=O)c4ccccc4NC(=O)[C@@]3(C)[C@H]2C1=O | -1.41
COCCCNS(=O)(=O)c1ccc2c3c(cccc13)C(=O)S2 | -5.43
CCOC(=O)N1CCC(NC(=O)C2CCN(C(=O)c3cc4oc(C)cc4n3Cc3c(F)cccc3Cl)CC2)CC1 | 7.04
Cc1sc2nc(SCC(=O)NCCCO)n(-c3ccccc3)c(=O)c2c1C | 10.7
O=C(Nc1cccc(Cl)c1)c1ccc(F)c(S(=O)(=O)N2CCN(c3ccccn3)CC2)c1 | 14.6
Cc1ccc(NC(=O)N2CCCc3ccccc32)cc1 | 0.512
COc1cccc(C(CNC(=O)C2CCN(C(=O)Nc3ccccc3)CC2)N(C)C)c1 (stereo not shown) | 9.44
O=C1c2ccc([N+](=O)[O-])cc2S(=O)(=O)N1Cc1ccccc1 | 7.96
